For 22 molecules, binding signal results are on record in article PMC12136788.

B1: chr11:75570464:75570465:+_ENSMUSG00000020849_ENSMUST00000067664|perfect_dup|motif|central (ssRNA)
RNA: GGGAGUUCUACAGUCCGACGAUCACGGUCGGGGGAAUUAAGAAUUUCAUAGUAGAAUACGGAAAAGUUGAGAGCAAGACCGGAACGAAUGGGGUGCGUUGGAGGAAGUUCUGUCAUCGCAAUGUCACUAGCAGCUUUGUAAGCCAACAGAGGAUUGAGCAUCA
B2: chr4:175180916:175180917:-_ENSG00000164117_ENST00000503293|hu_mus|FALSE|FALSE (ssRNA)
RNA: GGGAGUUCUACAGUCCGACGAUCAUUAAAGGUGAGGCUUCCCUCAUCUAGCUGCAUAUACAAUUUUCUAAAAGAAAAUCCUAAAGGUGGGUUCUUAUUGUAUAUAGAGCAGUGACCCCAUGUAGAUUUACACAACCCUUGCCACAACAGAGGAUUGAGCAUCA
B3: chr8:103876086:103876087:-_ENSG00000155096_ENST00000347770|hu_mus|FALSE|FALSE (ssRNA)
RNA: GGGAGUUCUACAGUCCGACGAUCCAACGUGAGAUAACGGCCCAAAGAGUCGGGUAAAGCGUCUUCUCUUUUUCGGCGGAAUUUUUAAAGAGGGAUGUGGUUACCUUGAGCAGAAAUACCCAAGGCGGCCUGGGCCAUAGGCUGCAACAGAGGAUUGAGCAUCA
B4: chr10:33190432:33190433:-_ENSG00000150093_ENST00000302278|hu_mus|hu_hu_hu_mus_True|28_78 (ssRNA)
RNA: GGGAGUUCUACAGUCCGACGAUCUACAUUUUCCAAACCUGCAUGUGAAUAAAACCCUGGCAAUAUUGCCCCAAAACUACCCUACUGUGACUAAGAUGCUGCUGCUGUUGCAUUCAGGUUGCAAAAUCCGCCUGAGUAGGAUUCCAACAGAGGAUUGAGCAUCA
B5: chr4:76721835:76721836:+_ENSG00000138768_ENST00000264904|hu_mus|hu_hu_hu_mus_True|48_48 (ssRNA)
RNA: GGGAGUUCUACAGUCCGACGAUCGUUUGGCUGGGGUUUCUGAGACGCUCUGGAAUAUAACUCAUGUUUGCUAAUAAAUCCUAGUUUUCUAUGAAAUUUCUCUUUGCCAAUCCUCUUCUCUAUUAGUUGCUUUAGUUUCUCUUUCAACAGAGGAUUGAGCAUCA
B6: chr13:37614821:37614822:-_ENSG00000102710_ENST00000475892|hu_mus|FALSE|FALSE (ssRNA)
RNA: GGGAGUUCUACAGUCCGACGAUCACUUUGGUAACCAGGAGACUUCAUAUUACUGGACUGCCUAUAGUCACGUAUUUCUGCUAUCACACAUCCACAAUGAAAAAUAUUAACCUGUGAUUUUUCAAGGAGAUCCACCAAAAUAGGCAACAGAGGAUUGAGCAUCA
B7: chr2:179515052:179515053:+_ENSMUSG00000000305_ENSMUST00000000314|mus_hu|mus_mus_mus_hu_False|38_98 (ssRNA)
RNA: GGGAGUUCUACAGUCCGACGAUCGCUGUCCCAUGCAGUGACGGUAAACGCCACCUGCUCGGAGGGGACCUGCAGCUCCCGGGUGGCGAAGACUGUCCCAUCCGCCCCAACUUUGAAGUCCAUGCUGUUGGUCUCAUAUUGUGUCAACAGAGGAUUGAGCAUCA
B8: chr6:89793807:89793808:+_ENSG00000146278_ENST00000336032|hu_hu|motif|central (ssRNA)
RNA: GGGAGUUCUACAGUCCGACGAUCGCUUCCCAUCCAGUGACUAGGAGGCUUUGGAAGAACACUAGGAGAAGGUGGAUCACGGAACUUUGCCCCAGCAUAAUUUUCCUUUUGGCUCACUUCAGUUAGAAAUGCUGAUUUCUUCAACAACAGAGGAUUGAGCAUCA
B9: chr7:7679991:7679992:-_ENSG00000106399_ENST00000396682|hu_hu|hu_hu_hu_mus_False|1_48 (ssRNA)
RNA: GGGAGUUCUACAGUCCGACGAUCUGGGAUGAAUCUUUUCCAGCUUCCCCACGAAGCACACGGGCCGGUCGAUAUACUGUGGUAACAUGCCGGCGUUGACGCGCGCUUUGGGGAGCUGCAUUAUGUCCUCCAUGAUUAUGGUCCCAACAGAGGAUUGAGCAUCA
B10: 150433044_150433978_734_3pUTR_ENSMUSG00000029657_ENSMUST00000074846|mouse|control|control (ssRNA)
RNA: GGGAGUUCUACAGUCCGACGAUCCAACAGCCGUCAUGUCAUUCAUGAGCCGCAAGCAGUUCAAGCCCACAAUCUGCGCAGCAUCCAGCACAGACCUUCGCUCAGCAUCUGUGAAGAAGGAUGGGACUGAGAUGACACAGUCUGCAACAGAGGAUUGAGCAUCA
B11: chr16:56974071:56974072:+_ENSG00000051108_ENST00000439977|hu_hu|FALSE|FALSE (ssRNA)
RNA: GGGAGUUCUACAGUCCGACGAUCCAUGAGGAAUCUGCUCAGGGAGGAGUAGAAGUAGAGGAUACUGAGAAAAACAGAAAAUGUAGCUGCUGAAUAGGUCCAAUCCAACCAAUCUCGAUUUAUUUCAUCAUCUUCUUCCACAAUCAACAGAGGAUUGAGCAUCA
B12: chr18:52893488:52893489:-_ENSG00000196628_ENST00000354452|hu_hu|hu_hu_hu_mus_True|98_98 (ssRNA)
RNA: GGGAGUUCUACAGUCCGACGAUCUAUUUAGACCAUUUCAAUGGAUUUAUGGCAUUUACUCAGUGCUGAUAGGUGGAAAAACUACUUCAACAGGGAUUUUUUUUUUCCUUAAUACAUGCCAAGAUUGUGUGGCUGUCAAAACAGCAACAGAGGAUUGAGCAUCA
B13: chr17:40142368:40142369:-_ENSG00000168259_ENST00000588814|hu_hu|FALSE|FALSE (ssRNA)
RNA: GGGAGUUCUACAGUCCGACGAUCAUUCGUAGAAUGUCACUAGCCACAGACUGUGCUUCUGGAUAACGACCCAGCAUUGCUAAACAUUCUGCCUUGAGGAUUUUGAAGCGAUGGCAGGCAGGGGCAAAUUCUAGGGCACGGUCCCAACAGAGGAUUGAGCAUCA
B14: 216269352_216271054_3218_CDS_ENSG00000115414_ENST00000323926|human|control|control (ssRNA)
RNA: GGGAGUUCUACAGUCCGACGAUCCUGGAGGUUAGUGGGAGCAUCCAGUUUGGUUGUCUGUUGAGCAGUCAGAGGCUUGCUCUCCCUCCCAUGGCUCACUGCAAAGACUUUGAAGUAAUAGGUGACCCCAGGGGACAGCCCGGUCAACAGAGGAUUGAGCAUCA
B15: 145510590_145512498_2390_CDS_ENSG00000133706_ENST00000545646|human|control|control (ssRNA)
RNA: GGGAGUUCUACAGUCCGACGAUCAAAAAACCCUGUUUUCAAAGCUUCUUUAAACAUCAUCUUUUCAUAGUUUUGAUCUGUUUUUAUAAUUCCUGCAUUCAAUUCACUGGCAAAAACUCUAUCAUUGAAAGUGCUGGCAGGACCCAACAGAGGAUUGAGCAUCA
B16: chr13:91842754:91842755:+_ENSMUSG00000003992_ENSMUST00000004094|mus_mus|motif|central (ssRNA)
RNA: GGGAGUUCUACAGUCCGACGAUCCCCAAAAUAUGUGAGUACUGCUGAUUUCAUUAUUAUGGGCUGAAGUAUGCAGAAAGCGGACCUCUGGCAAGCAGCAUAUACAUCAAGAGGACAUGAAUGGGCCAACAGCCGUAGAAUGCACAACAGAGGAUUGAGCAUCA
B17: chrX:12734859:12734860:+_ENSMUSG00000031010_ENSMUST00000089302|mus_hu|FALSE|FALSE (ssRNA)
RNA: GGGAGUUCUACAGUCCGACGAUCAUCACUGGCAGAGCCACGGACUACUUUCUUUGUGUGAAAUCCUGUAGUAAAGAGGAACCUAGCAGCAAGUUGAAUACUGAUCAUAGUGAUUUCUUCUGCUUCAGGCAACAGGUGAUCUUGCAACAGAGGAUUGAGCAUCA
B18: chr17:87832841:87832842:-_ENSMUSG00000036438_ENSMUST00000040440|perfect_dup|motif|central (ssRNA)
RNA: GGGAGUUCUACAGUCCGACGAUCUAUACAACUUGGAAUGGAUUUUGAGGCAAAUUGUGCCAUAAGCAGAUUUUAAGUGGCGGAACAAAGUUUAAAAAGCAAGUAACAAUAAAAGAAAAUGUUUCUGGUACAGGACCAGCAGUACAACAGAGGAUUGAGCAUCA
B19: 42725189_42729127_464_CDS_ENSG00000120925_ENST00000527424|human|control|control (ssRNA)
RNA: GGGAGUUCUACAGUCCGACGAUCUUGGUGCAGGCAGAUGGGACAGUACAUGUCAGUGUAGAACUGCUGUCGAGUGGCAGCAGGUGCAUCCUGUUCUGUUUGAAGCUGUUCUCGAAGUACCCUUACUAGCUCCUGGUUUUCUGGCAACAGAGGAUUGAGCAUCA
B20: chr14:89307221:89307222:+_ENSG00000165533_ENST00000346301|hu_mus|hu_hu_hu_mus_False|58_68 (ssRNA)
RNA: GGGAGUUCUACAGUCCGACGAUCUCCUGUUUGGUUAGUGCCAGGGAGCUUCAAAGAUGUGCCAGGGCGUGGAACUUGAGCUAUAGCAUUUUCAUCCAGGAUCAUUUCAGCAAUUCCUUCCUGGUCCACAUCAAUUUCAUCUAUCAACAGAGGAUUGAGCAUCA
B21: chr5:162868235:162868236:+_ENSG00000113328_ENST00000340828|hu_hu|FALSE|FALSE (ssRNA)
RNA: GGGAGUUCUACAGUCCGACGAUCCCAACACACCUUCUCCAAUACAAUCUUUUCCAUUCUCAUCAAGUCUGAAACCGUAAACCUAUAUUGACUUAUUCGGAUCAAGUCAGUUGCCAAUGGGACAUUCCUUUCCUCUUCUAUUGACAACAGAGGAUUGAGCAUCA
B22: chr14:89338683:89338684:+_ENSG00000165533_ENST00000346301|hu_hu|hu_hu_hu_mus_False|38_58 (ssRNA)
RNA: GGGAGUUCUACAGUCCGACGAUCGUGGUUGUUGUGGACCAGGGCCAGCCUGAAGCAUUGGUGGGCCAAGUUUGUAUCUCCUAUUCCCACAGCUAUGUGUCCCAAGUUGUACCAGACAUCAGCUGCCUCUUCUUCAUUUUCAGCCAACAGAGGAUUGAGCAUCA

The list shows a part of the results.

This experiment addresses T1, UNK ZnF1-3 (human, UniProt Q9C0B0 31-174).
T1 sequence: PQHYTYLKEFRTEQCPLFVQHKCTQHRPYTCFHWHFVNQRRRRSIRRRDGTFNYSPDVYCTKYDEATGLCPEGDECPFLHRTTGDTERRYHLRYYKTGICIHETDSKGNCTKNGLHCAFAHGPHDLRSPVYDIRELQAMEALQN
Kind of experiment: nsRBNS (natural sequence RNA bind-n-seq); RBNS binding buffer (assumed for nsRBNS): 25 mM Tris pH 7.5, 150 mM KCl, 3 mM MgCl2, 0.01% Triton X-100, 500 ug/ml BSA, 20 U/ml SUPERase-In, 4 C; UNK is unkempt and MSI1 is Musashi-1; names of the RNAs are library labels; protein concentration not given here; high values mean tight binding.
In turn, B1 had a binding signal of 1.82 enrichment R.
Under B2 stands 1.14 enrichment R.
Take B3: the binding signal turned out to be 0.946 enrichment R.
As for B4, the figure is 1.34 enrichment R; as for B5, 0.57 enrichment R.
The molecule B6 showed a binding signal of 1.11 enrichment R.
Under B7 stands 0.848 enrichment R; under B8, 1.11 enrichment R; under B9, 0.342 enrichment R.
In turn, B10 showed a binding signal of 1.41 enrichment R.
As for B11, the binding signal turned out to be 1.69 enrichment R.
With B12, the binding signal was 1.08 enrichment R.
The molecule B13 had a binding signal of 1.17 enrichment R.
Under B14 stands 1.68 enrichment R; under B15, 0.848 enrichment R.
In turn, B16 gave a binding signal of 1.6 enrichment R.
Under B17 stands 1.16 enrichment R; under B18, 1.53 enrichment R; under B19, 0.739 enrichment R.
B20 came in with a binding signal of 0.86 enrichment R.
B21: the binding signal is 0.878 enrichment R.
Consider B22, for which the binding signal stood at 0.762 enrichment R.
